Results as given in the supplement of paper PMC4967469.
By IC50 is meant the dose at which the fit gives 50% viability; where the fit passes the top or lowest dose, that dose stands as a limit. AUC, from the same fit, is the share of area under the viability curve across the 256-fold dose range; values near 1 show little effect. For some assays here: A top dose marked as inferred is not printed in the source and was worked back from the curve model.

Assays:
Experiment in all cases: Viability of human cancer cell lines after 72 h of drug (GDSC screen)
[1] = compound: CN(C)Cc1cccc(N=C(c2ccccc2)c2c(O)[nH]c3cc(C(=O)N(C)C)ccc23)c1 [BIX02189]; settings: top dose 20 µM; top dose inferred
Description: (§1)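 Human cancer cell lines in 384-well plates, medium with 10% serum, drug for 72 h over a 256-fold dose range (nine 2-fold or five 4-fold steps up to the top dose). Adherent lines were fixed and stained with the nucleic acid dye Syto60, suspension lines read with resazurin; signal relative to control wells, capped at 0 and 100%. One two-parameter sigmoid per drug and line, fitted in a mixed model over all curves with the slope shared within a line.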

[2] = compound: COc1cccc2c1C(=O)c1c(O)c3c(c(O)c1C2=O)C[C@@](O)(C(=O)CO)C[C@@H]3O[C@H]1C[C@H](N)[C@H](O)[C@H](C)O1 [Doxorubicin]; settings: top dose 1.024 µM
Description: as §1

[3] = compound: COC(=O)CNC(=O)C(=O)OC [Dimethyloxalylglycine]; settings: top dose 4000 µM; top dose inferred
Description: as §1

[4] = compound: COc1cccc2cc(-c3nc([C@H]4CC[C@H](C(=O)O)CC4)n4ncnc(N)c34)[nH]c12 [OSI-027]; settings: top dose 20 µM
Description: as §1

[5] = compound: CCc1cc(-c2n[nH]c(C)c2-c2ccc3c(c2)OCCO3)c(O)cc1O [CCT018159]; settings: top dose 10 µM; top dose inferred
Description: as §1

[6] = compound: Cc1cnc(Nc2ccc(OCCN3CCCC3)cc2)nc1Nc1cccc(S(=O)(=O)NC(C)(C)C)c1 [TG101348]; settings: top dose 10.24 µM
Description: as §1

[7] = compound: O=C(c1ccc(C(=O)N2CCC(N3CCCC3)CC2)c(Nc2ccccc2)c1)N1CCC(N2CCCC2)CC1 [UNC1215]; settings: top dose 1 µM; top dose inferred
Description: as §1

[8] = compound: Cc1cnc(Nc2ccc(F)cc2Cl)nc1-c1c[nH]c(C(=O)N[C@H](CO)c2cccc(Cl)c2)c1 [VX-11e]; settings: top dose 5.12 µM; top dose inferred
Description: as §1

[9] = compound: CS(=O)(=O)c1ccc(C(=O)Nc2ccc(Cl)c(-c3ccccn3)c2)c(Cl)c1 [Vismodegib]; settings: top dose 10 µM; top dose inferred
Description: as §1

Row | Cell Line | AUC [1] | IC50 [1] [µM] | AUC [2] | IC50 [2] [µM] | AUC [3] | IC50 [3] [µM] | AUC [4] | IC50 [4] [µM] | AUC [5] | IC50 [5] [µM] | AUC [6] | IC50 [6] [µM] | AUC [7] | IC50 [7] [µM] | AUC [8] | IC50 [8] [µM] | AUC [9] | IC50 [9] [µM]
1 | PCI-38 (head and neck, adherent) | 0.91 | > 20 | 0.827 | 0.633 | 0.941 | > 4000 | 0.881 | > 20 | 0.845 | 7.31 | 0.939 | > 10.2 | 0.985 | > 1 | 0.937 | > 5.12 | – | –
2 | H2818 (mesothelioma, adherent) | 0.985 | > 20 | 0.859 | 0.89 | 0.676 | 785 | 0.962 | > 20 | 0.968 | > 10 | 0.899 | > 10.2 | 0.988 | > 1 | 0.989 | > 5.12 | – | –
3 | ML-1 (thyroid, adherent) | 0.941 | > 20 | 0.465 | 0.0506 | 0.26 | 45 | 0.765 | 8.57 | 0.95 | > 10 | 0.794 | 5.62 | 0.982 | > 1 | 0.97 | > 5.12 | – | –
4 | A2058 (melanoma, adherent) | 0.99 | > 20 | 0.31 | 0.02 | 0.42 | 155 | 0.638 | 2.88 | 0.826 | 5.18 | 0.9 | > 10.2 | – | – | 0.983 | > 5.12 | 0.982 | > 10
5 | KOSC-2 (head and neck, adherent) | 0.982 | > 20 | 0.685 | 0.217 | 0.914 | > 4000 | 0.844 | 15.3 | 0.869 | 9.94 | 0.751 | 3.51 | 0.971 | > 1 | 0.975 | > 5.12 | – | –
6 | SW1463 (large intestine, adherent) | 0.974 | > 20 | 0.856 | > 1.02 | 0.678 | 1130 | 0.567 | 2.16 | 0.978 | > 10 | 0.978 | > 10.2 | 0.975 | > 1 | 0.911 | > 5.12 | – | –
7 | NCI-H1299 (large cell lung carcinoma, adherent) | 0.919 | > 20 | 0.432 | 0.0401 | 0.76 | 1720 | 0.829 | 16.5 | 0.855 | > 10 | 0.752 | 4.09 | 0.98 | > 1 | 0.91 | > 5.12 | – | –
8 | SW837 (large intestine, adherent) | 0.965 | > 20 | 0.572 | 0.107 | 0.659 | 802 | 0.561 | 1.93 | 0.957 | > 10 | 0.906 | > 10.2 | 0.979 | > 1 | 0.797 | 3.36 | – | –
9 | J82 (bladder, adherent) | 0.97 | > 20 | 0.356 | 0.0257 | 0.325 | 81.3 | 0.662 | 3.52 | 0.925 | > 10 | 0.977 | > 10.2 | 0.987 | > 1 | 0.988 | > 5.12 | – | –
10 | COR-L105 (lung adenocarcinoma, adherent) | 0.771 | 9.42 | 0.621 | 0.149 | 0.269 | 46.8 | 0.286 | 0.267 | 0.919 | > 10 | 0.794 | 5.91 | 0.973 | > 1 | 0.805 | 3.29 | – | –
11 | Daoy (medulloblastoma, adherent) | 0.963 | > 20 | 0.231 | 0.0116 | 0.506 | 260 | 0.216 | 0.203 | 0.832 | 5.57 | 0.943 | > 10.2 | 0.986 | > 1 | 0.97 | > 5.12 | – | –
12 | HSC-3 (head and neck, adherent) | 0.989 | > 20 | 0.49 | 0.0604 | 0.657 | 633 | 0.865 | 13.6 | 0.893 | 8.91 | 0.962 | > 10.2 | 0.987 | > 1 | 0.988 | > 5.12 | – | –
13 | COLO-792 (melanoma, adherent) | 0.987 | > 20 | 0.899 | > 1.02 | 0.884 | > 4000 | 0.312 | 0.376 | 0.972 | > 10 | 0.828 | 6.15 | 0.987 | > 1 | 0.985 | > 5.12 | – | –
14 | HPAF-II (pancreas, adherent) | 0.939 | > 20 | 0.786 | 0.593 | 0.69 | 1010 | 0.37 | 0.488 | 0.846 | > 10 | 0.897 | > 10.2 | 0.978 | > 1 | 0.687 | 1.26 | – | –
15 | NCI-H1573 (lung adenocarcinoma, adherent) | 0.987 | > 20 | 0.99 | > 1.02 | 0.891 | > 4000 | 0.892 | > 20 | 0.932 | > 10 | 0.94 | > 10.2 | 0.983 | > 1 | 0.982 | > 5.12 | – | –
16 | TGBC24TKB (biliary tract, adherent) | 0.978 | > 20 | 0.882 | 0.963 | 0.685 | 789 | 0.82 | 10.5 | 0.928 | > 10 | 0.935 | > 10.2 | 0.984 | > 1 | 0.932 | > 5.12 | – | –
17 | NCI-H1734 (lung adenocarcinoma, adherent) | 0.956 | > 20 | 0.475 | 0.0543 | 0.857 | 3770 | 0.782 | 9.23 | 0.976 | > 10 | 0.916 | > 10.2 | – | – | 0.983 | > 5.12 | 0.978 | > 10
18 | NCI-H1963 (small cell lung carcinoma, suspension) | 0.99 | > 20 | 0.803 | 0.433 | 0.518 | 278 | – | – | 0.853 | 6.3 | – | – | – | – | 0.982 | > 5.12 | 0.991 | > 10
19 | RMG-I (ovary, adherent) | 0.89 | > 20 | 0.76 | 0.419 | 0.653 | 716 | 0.275 | 0.254 | – | – | 0.826 | 7.63 | 0.981 | > 1 | 0.889 | > 5.12 | 0.983 | > 10
20 | KP-4 (pancreas, adherent) | 0.987 | > 20 | 0.472 | 0.0539 | 0.751 | 1270 | 0.373 | 0.567 | 0.901 | > 10 | 0.988 | > 10.2 | 0.982 | > 1 | 0.988 | > 5.12 | – | –
21 | KALS-1 (glioma, adherent) | 0.934 | > 20 | 0.399 | 0.0305 | 0.64 | 705 | 0.504 | 1.29 | 0.833 | > 10 | 0.895 | > 10.2 | 0.975 | > 1 | 0.893 | > 5.12 | – | –
22 | PL18 (pancreas, adherent) | 0.973 | > 20 | 0.43 | 0.0414 | 0.733 | 1150 | 0.814 | 10.8 | 0.901 | > 10 | 0.901 | > 10.2 | 0.982 | > 1 | 0.947 | > 5.12 | – | –
23 | HTC-C3 (thyroid, adherent) | 0.854 | 19 | 0.763 | 0.414 | 0.429 | 156 | 0.161 | 0.0966 | 0.937 | > 10 | 0.789 | 5.14 | 0.982 | > 1 | 0.783 | 2.44 | – | –
24 | NCI-H1793 (lung adenocarcinoma, adherent) | 0.97 | > 20 | 0.824 | 0.978 | 0.701 | 1180 | 0.546 | 1.76 | 0.912 | > 10 | 0.924 | > 10.2 | 0.979 | > 1 | 0.982 | > 5.12 | – | –
25 | A204 (rhabdomyosarcoma, adherent) | 0.853 | > 20 | 0.285 | 0.013 | 0.565 | – | 0.435 | 0.79 | 0.93 | > 10 | 0.804 | 6.99 | 0.974 | > 1 | 0.959 | > 5.12 | – | –
26 | HMV-II (melanoma, adherent) | 0.944 | > 20 | 0.297 | 0.0149 | – | – | 0.8 | 12.2 | 0.928 | > 10 | 0.915 | > 10.2 | 0.98 | > 1 | 0.64 | 0.854 | 0.981 | > 10
27 | KMS-12-BM (myeloma, suspension) | 0.92 | > 20 | 0.771 | 0.326 | 0.414 | 152 | 0.158 | 0.147 | 0.954 | > 10 | 0.405 | 0.368 | – | – | 0.971 | > 5.12 | 0.951 | > 10
28 | T-24 (bladder, adherent) | 0.96 | > 20 | 0.736 | 0.291 | 0.791 | 1710 | 0.775 | 7.54 | 0.842 | 6.59 | 0.905 | > 10.2 | 0.987 | > 1 | 0.951 | > 5.12 | – | –
